Experimental data taken from article PMC6152123, “Sites for Dynamic Protein-Carbohydrate Interactions of O- and C-Linked Mannosides on the E. coli FimH Adhesin” (Molecules : A Journal of Synthetic Chemistry and Natural …, 2017).

Test system: type-1 piliated uropathogenic E. coli strain UTI89
Test: Haemagglutination inhibition assay (HAI), guinea pig red blood cells
Details: for IC50: Escherichia coli, Erythrocyte, read-out: IC50 HAI (µM); for HAI: minimal concentration inhibiting haemagglutination, 2-fold dilution series, 10% DMSO, 1 hour at 4 °C

| Compound | IC50 | HAI | fold higher inhibition potency than 4-thio analog 37 (ITC and HAI measurements) | fold better inhibitory potency than alkene 25 (HAI data) |
| --- | --- | --- | --- | --- |
| OC[C@H]1O[C@H](CCCc2cccc3ccccc23)[C@@H](O)[C@@H](O)[C@@H]1O [Compound 122] | 12.5 µM | – | – | – |
| OC[C@H]1O[C@H](OC/C=C/c2ccc(-c3ccccc3)cc2)[C@@H](O)[C@@H](O)[C@@H]1O [Compound 23] | 25 µM | 25 µM | – | – |
| OC[C@H]1O[C@H](OC/C=C/c2cccc3ccccc23)[C@@H](O)[C@@H](O)[C@@H]1O [Compound 25] | 50 µM | 50 µM | – | – |
| COCC#Cc1ccc(O[C@H]2O[C@H](CO)[C@@H](O)[C@H](O)[C@@H]2O)cc1 [Compound 62] | 25 µM | 25 µM | – | – |
| OC[C@H]1O[C@H](C/C=C/c2cccc3ccccc23)[C@@H](O)[C@@H](O)[C@@H]1O [Compound 118] | 25 µM | – | – | – |
| OC[C@H]1O[C@H](C/C=C/c2ccc(-c3ccccc3)cc2)[C@@H](O)[C@@H](O)[C@@H]1O [Compound 116] | 100 µM | – | – | – |
| CCCCCCCO[C@H]1O[C@H](CO)[C@@H](O)[C@H](O)[C@@H]1O [Compound 5, heptyl α-D-mannopyranoside, reference compound] | 6.25 µM | 6.25 µM | ~ 4 fold | – |
| OC[C@H]1O[C@H](OCC#Cc2ccc(-c3ccccc3)cc2)[C@@H](O)[C@@H](O)[C@@H]1O [Compound 51] | 100 µM | 100 µM | – | – |
| OC[C@H]1O[C@H](OCC#Cc2cccc3ccccc23)[C@@H](O)[C@@H](O)[C@@H]1O [Compound 53] | 50 µM | 50 µM | – | – |
| OC[C@H]1O[C@H](OCCCc2cccc3ccccc23)[C@@H](O)[C@@H](O)[C@@H]1O [Compound 29] | 25 µM | 25 µM | – | 2 fold |
| OC[C@H]1O[C@H](OCC#Cc2cccnc2)[C@@H](O)[C@@H](O)[C@@H]1O [Compound 55] | 50 µM | 50 µM | – | – |
| CCCSCCCO[C@H]1O[C@H](CO)[C@@H](O)[C@H](O)[C@@H]1O [Compound 37] | 25 µM | 25 µM | – | – |
| OCC#Cc1ccc(O[C@H]2O[C@H](CO)[C@@H](O)[C@H](O)[C@@H]2O)cc1 [Compound 61] | 12.5 µM | 12.5 µM | – | – |
| OC[C@H]1O[C@H](CCCc2ccc(-c3ccccc3)cc2)[C@@H](O)[C@@H](O)[C@@H]1O [Compound 120] | 12.5 µM | – | – | – |
| COc1ccc(C#CCO[C@H]2O[C@H](CO)[C@@H](O)[C@H](O)[C@@H]2O)cc1 [Compound 56] | 50 µM | 50 µM | – | – |
| OC[C@H]1O[C@H](OCCCc2ccc(-c3ccccc3)cc2)[C@@H](O)[C@@H](O)[C@@H]1O [Compound 27] | 25 µM | 25 µM | – | – |
| CCCCO[C@H]1O[C@H](CO)[C@@H](O)[C@H](O)[C@@H]1O [Compound 4, reference compound] | 100 µM | 100 µM | – | – |
